Consider 2 molecules from paper PMC4151078, “Visualization of the physical and functional interaction between hMYH and hRad9 by Dronpa bimolecular fluorescence complementation” (BMC Molecular Biology, 2014).

These are yes or no findings as the source states them, for the method shown. For part of these data: In cells and extracts the contact can be indirect. Some results given as binding are weak or reduced against the parent protein; the word gives no strength. For part of these data: Sequences can lack the tags named with a protein.

In assay [1] the target is T1, endogenous hMYH (human (endogenous in HEK293)) (UniProt Q9UIF7).
T1 sequence: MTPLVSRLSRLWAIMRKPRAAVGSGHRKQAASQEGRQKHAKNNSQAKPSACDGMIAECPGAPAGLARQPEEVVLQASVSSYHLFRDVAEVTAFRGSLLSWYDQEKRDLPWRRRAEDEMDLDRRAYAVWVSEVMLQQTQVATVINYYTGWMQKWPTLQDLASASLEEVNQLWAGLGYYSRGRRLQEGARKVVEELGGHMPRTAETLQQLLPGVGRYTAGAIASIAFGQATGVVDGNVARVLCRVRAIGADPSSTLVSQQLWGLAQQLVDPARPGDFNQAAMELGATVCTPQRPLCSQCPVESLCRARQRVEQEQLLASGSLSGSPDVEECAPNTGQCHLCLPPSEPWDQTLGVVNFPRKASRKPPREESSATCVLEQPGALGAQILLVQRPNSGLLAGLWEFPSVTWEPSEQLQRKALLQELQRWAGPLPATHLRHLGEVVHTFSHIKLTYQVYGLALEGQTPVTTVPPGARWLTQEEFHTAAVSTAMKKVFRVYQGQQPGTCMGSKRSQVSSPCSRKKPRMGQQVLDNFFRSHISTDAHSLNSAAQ
Kind of assay: co-IP; lysates of untransfected HEK293 cells; endogenous hMYH immunoprecipitated with anti-hMYH antibody (mouse IgG as control), blotted with anti-hMYH and anti-hRad9.

Assay [2] addresses T2, GST-hMYH-ΔN (amino acids 75-547) (human) (UniProt Q9UIF7).
T2 sequence: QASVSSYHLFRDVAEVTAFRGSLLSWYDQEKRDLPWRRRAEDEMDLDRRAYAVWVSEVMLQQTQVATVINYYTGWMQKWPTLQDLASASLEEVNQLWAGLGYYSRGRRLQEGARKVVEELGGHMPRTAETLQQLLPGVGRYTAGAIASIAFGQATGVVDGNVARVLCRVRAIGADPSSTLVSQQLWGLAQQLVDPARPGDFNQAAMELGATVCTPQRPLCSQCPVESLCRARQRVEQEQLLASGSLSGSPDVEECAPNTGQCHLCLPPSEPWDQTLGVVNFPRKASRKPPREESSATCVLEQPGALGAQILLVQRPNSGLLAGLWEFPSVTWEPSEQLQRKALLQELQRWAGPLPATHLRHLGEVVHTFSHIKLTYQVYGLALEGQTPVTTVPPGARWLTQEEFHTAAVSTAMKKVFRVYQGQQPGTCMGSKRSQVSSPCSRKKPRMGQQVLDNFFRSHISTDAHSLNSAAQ
Kind of assay: pull-down; GST or GST-hMYH fusion on glutathione-Sepharose 4B beads, purified His-hRad9 added; 50 mM Tris-HCl pH 7.5, 150 mM NaCl, 1 mM EDTA, 0.3 mM DTT, 0.1% NP-40; 3 h at 4°C; blot with anti-GST and anti-His; both purified.

For assay [3], the target named is T3, GST-hMYH-ΔNC (amino acids 75-487) (human) (UniProt Q9UIF7).
T3 sequence: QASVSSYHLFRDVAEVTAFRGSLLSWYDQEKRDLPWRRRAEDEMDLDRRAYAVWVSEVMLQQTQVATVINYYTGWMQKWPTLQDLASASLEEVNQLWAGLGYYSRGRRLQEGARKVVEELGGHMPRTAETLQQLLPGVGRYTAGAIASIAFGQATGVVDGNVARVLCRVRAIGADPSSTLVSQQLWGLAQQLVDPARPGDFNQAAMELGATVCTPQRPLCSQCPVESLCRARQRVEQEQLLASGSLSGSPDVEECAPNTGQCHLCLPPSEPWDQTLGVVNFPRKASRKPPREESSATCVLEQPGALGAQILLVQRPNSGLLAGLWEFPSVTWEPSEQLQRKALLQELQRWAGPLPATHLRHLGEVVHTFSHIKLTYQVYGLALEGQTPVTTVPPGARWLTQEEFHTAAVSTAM
The assay is described as above.

B1: endogenous hRad9 (protein, UniProt Q99638 1-391)
chain: MKCLVTGGNVKVLGKAVHSLSRIGDELYLEPLEDGLSLRTVNSSRSAYACFLFAPLFFQQYQAATPGQDLLRCKILMKSFLSVFRSLAMLEKTVEKCCISLNGRSSRLVVQLHCKFGVRKTHNLSFQDCESLQAVFDPASCPHMLRAPARVLGEAVLPFSPALAEVTLGIGRGRRVILRSYHEEEADSTAKAMVTEMCLGEEDFQQLQAQEGVAITFCLKEFRGLLSFAESANLNLSIHFDAPGRPAIFTIKDSLLDGHFVLATLSDTDSHSQDLGSPERHQPVPQLQAHSTPHPDDFANDDIDSYMIAMETTIGNEGSRVLPSISLSPGPQPPKSPGPHSEEEDEAEPSTVPGTPPPKKFRSLFFGSILAPVRSPQGPSPVLAEDSEGEG
Regarding B1, the binding result in assay [1] was “binds”.

B2: His-hRad9 (natural protein, human, UniProt Q99638 1-391, looked up)
chain: MKCLVTGGNVKVLGKAVHSLSRIGDELYLEPLEDGLSLRTVNSSRSAYACFLFAPLFFQQYQAATPGQDLLRCKILMKSFLSVFRSLAMLEKTVEKCCISLNGRSSRLVVQLHCKFGVRKTHNLSFQDCESLQAVFDPASCPHMLRAPARVLGEAVLPFSPALAEVTLGIGRGRRVILRSYHEEEADSTAKAMVTEMCLGEEDFQQLQAQEGVAITFCLKEFRGLLSFAESANLNLSIHFDAPGRPAIFTIKDSLLDGHFVLATLSDTDSHSQDLGSPERHQPVPQLQAHSTPHPDDFANDDIDSYMIAMETTIGNEGSRVLPSISLSPGPQPPKSPGPHSEEEDEAEPSTVPGTPPPKKFRSLFFGSILAPVRSPQGPSPVLAEDSEGEG
notes: human Rad9 (hRad9), NM_004584; also called purified His-hRad9; His-purified hRad9 protein; source: bacterially expressed and purified
With B2, the binding result in assay [2] and in assay [3] was “no binding” in each case.
